Test results published in PubChem BioAssay AID686979 (National Center for Advancing Translational Sciences (NCATS), 2013).
Hit rate of the full screen: of about 420,000 compounds, about 50,000 (12%) were called active. The inconclusive results got no clear call from the source; some entries with a clear call stand among them for comparison. Calls come from the whole dose curve; as a rule, active = well fitted inhibition curve with a large enough effect; inconclusive = small, poorly fitted or top-dose-only effect; inactive = flat fitted curve, though single readings scatter. No potency is given beside an inconclusive call; the fits are too rough.
% is set by controls: 0 for no effect and ±100 for the full control effect; potency is the fitted concentration of half-maximal effect; tags give direction and shape of the fitted curve.

Experiment: qHTS for Inhibitors of human tyrosyl-DNA phosphodiesterase 1 (TDP1): qHTS in cells in presence of CPT; note: nearly all actives have a fitted effect of over 55% in size
Settings: chicken DT40 Tdp1-/-;hTDP1 cells + 20 nM CPT, ATP luminescence, 48 h; activity change, negative = growth inhibition: at 46.2 µM (top of the series) unless noted
In short: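 Chicken DT40 Tdp1-/- cells complemented with human TDP1, 400 cells/well, exposed to compounds plus 20 nM camptothecin for at least 48 h at 37 C; viability read as ATP content by CellTiter-Glo luminescence.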
With Cc1ccc(-c2nnc(SCCC(=O)Nc3ccccc3)n2C)cc1 the Potency was “inactive”. With CCC(=O)N1c2ccccc2CC1C(=O)N1CCN(c2cccc(Cl)c2)CC1 (stereo not drawn) the Potency was inconclusive [inhibitor, single point]. In the case of CCOC(=O)N1CCC(Nc2c(NCCN3CCN(c4cccc(Cl)c4)CC3)c(=O)c2=O)CC1, the Potency is reported as “inactive”. In the case of COc1cc(C(=O)Nc2sc3c(c2C#N)CCN(C(C)=O)C3)cc(OC)c1OC, the Potency is reported as inconclusive [inhibitor, single point]. In the case of COc1cccc(-c2nc(CS(=O)(=O)CC(=O)N3CCc4ccccc4C3)c(C)o2)c1, the Potency is reported as inconclusive [inhibitor, single point]. In the case of CCCCC(=O)Nc1nc(C)c(-c2csc(Nc3ccc(Cl)cc3)n2)s1, the Potency is reported as inconclusive [inhibitor, single point]. In the case of Cc1nn(C(=O)c2cccs2)c(C)c1CN1C(=O)c2ccccc2C1=O, the Potency is reported as inconclusive [inhibitor, single point]. In the case of CC1(C)CC(NC(=O)c2cc([N+](=O)[O-])cc([N+](=O)[O-])c2)CC(C)(C)N1, the Potency is reported as inconclusive [inhibitor, single point]. For COc1ccc(NC2CCCN(Cc3cccc4cnccc34)C2)cc1 (stereo not drawn), the Potency was inconclusive [inhibitor, single point]. For CC1=NN(C(N)=S)C(=O)C1N=Nc1ccc(Cl)cc1 (stereo not drawn), the Potency was active: 0.517 µM. For O=C(c1cnc2ccccn2c1=O)N1CCc2ccccc21, the Potency was “inactive”. In the case of CCCCCc1c(-c2cccc(F)c2)ncn1CCc1ccccc1OC, the Potency is reported as active: 23.1 µM. For COc1cc(C(=O)N/N=C/c2ccc(OC)c(CN3CCN(c4ccc(F)cc4)CC3)c2)ccc1O, the Potency was inconclusive [inhibitor, single point]. For COc1cc(/C=N/NC(=O)c2ccccc2NS(=O)(=O)c2cccs2)ccc1O, the Potency was “inactive”. For O=C(Nc1ccc(Cl)c(Cl)c1)C1CC(=O)N(c2ccc(Br)cc2)C1 (stereo not drawn), the Potency was inconclusive [inhibitor, partial curve, poor fit]. In the case of CCc1cccc(NC(=O)CCS(=O)(=O)c2ccc3c(c2)NC(=O)CO3)c1, the Potency is reported as inconclusive [inhibitor, single point]. With COc1cccc(CNCCSc2nnnn2C)c1OCc1ccccc1Cl the Potency was inconclusive [inhibitor, single point]. For CC(=O)c1ccc(S(=O)(=O)N2CCNCC2)cc1, the Potency was inconclusive [inhibitor, single point]. For Cc1ccc(NC(=S)N/N=C2/CCCCc3ccccc32)cc1, the Potency was inconclusive [inhibitor, single point]. With N#CC1(NC(=O)CSc2nnc3n2CCCCC3)CCCCC1 the Potency was “inactive”. In the case of CCO/C(C)=N/Oc1cncnc1, the Potency is reported as “inactive”. With Cc1n[nH]c2ccc(Br)cc2c1=O the Potency was inconclusive [inhibitor, single point]. In the case of COc1ccc2c(c1)CCC/C2=N\Nc1nc(C(=O)NN)cs1, the Potency is reported as inconclusive [inhibitor, partial curve, poor fit]. For COc1cc2c(cc1OC)C1=C(C#N)COCN1CC2, the Potency was inconclusive [inhibitor, partial curve]. For CCOc1ccc(NC(=O)CSc2nnc(Cc3ccccc3)c(=O)n2N)cc1, the Potency was inconclusive [inhibitor, single point]. In the case of CN1C(=O)CN2CCc3ccccc3C2c2cc(Cl)ccc21 (stereo not drawn), the Potency is reported as inconclusive [inhibitor, single point]. With CC(C)(C)CC(=O)NC(=S)Nc1ccccc1C(F)(F)F the Potency was inconclusive [inhibitor, single point]. For CCOC(=O)[C@]12CCCC=C1N(Cc1cccc3ccccc13)C(=O)[C@H](CC(=O)NCc1ccccc1)C2, the Potency was inconclusive [inhibitor, single point]. In the case of CCN1C(=O)C(=O)N(CC(=O)N(C)CC(=O)Nc2ccccc2C(F)(F)F)C1=O, the Potency is reported as “inactive”. For CCN1CCN(C(=O)c2cc(=O)c3cc(C)ccc3o2)CC1, the Potency was “inactive”. With CCCNC(=O)CCc1c(C)nc2c(c(C)nn2-c2ccccc2)c1C the Potency was “inactive”. In the case of CSc1ccccc1NC(=O)c1noc(C)c1[N+](=O)[O-], the Potency is reported as “inactive”. For CCOC(=O)c1ccc(-n2c(CCC(=O)O)ccc2-c2ccc(Br)cc2)cc1, the Potency was inconclusive [inhibitor, single point]. For COc1ccc(Cn2c(SCC(=O)NCc3ccc(Cl)cc3)nc3ccsc3c2=O)cc1, the activity change, negative = growth inhibition was inconclusive: -30.7% [inhibitor]. In the case of Nc1nc2c(ncn2C2CC(O)C(CO)O2)c(=O)[nH]1 (stereo not drawn), the Potency is reported as active: 10.3 µM. With CNC(=O)NC(=O)C(OC(=O)CCNS(=O)(=O)c1ccccc1)c1ccccc1 (stereo not drawn) the Potency was “inactive”. In the case of CCCCn1nnnc1C(CCSC)N1CCN(C/C=C/c2ccccc2)CC1 (stereo not drawn), the Potency is reported as inconclusive [inhibitor, single point]. For CN(C)S(=O)(=O)c1ccc(C(=O)Nc2nnc(Cc3ccccc3)s2)cc1, the Potency was “inactive”. In the case of O=C(OCC1CCNCC1)c1ccc2c(c1)OCO2, the Potency is reported as “inactive”. With COc1ccc(C2Nc3ccccc3C(=O)N2Cc2ccccc2)cc1Cn1nnc2ccccc21 (stereo not drawn) the Potency was inconclusive [inhibitor, partial curve, poor fit]. For Cc1ccccc1NC(=O)c1ccc(CN2CC(=O)N3CCCCC3C2=O)cc1 (stereo not drawn), the Potency was “inactive”. With CC(C)(CNC(=O)c1ccc([N+](=O)[O-])c(Cl)c1)CNC(=O)c1ccc([N+](=O)[O-])c(Cl)c1 the Potency was active: 18.4 µM. For CCOC(=O)c1c(-c2cccc([N+](=O)[O-])c2)csc1NC(=O)C1CC1, the Potency was active: 18.4 µM. In the case of CC(C)[C@H](NC(=O)N1CCn2c1nc1ccccc12)C(=O)NCc1ccc(F)cc1, the Potency is reported as inconclusive [inhibitor, single point]. In the case of CCOc1cc2[nH]c(=O)n(Cc3ccccc3)c(=O)c2cc1OCC, the Potency is reported as “inactive”. In the case of O=C(NCc1cccs1)c1ccc(Cn2c(SCc3ccccc3)nc3cccnc32)cc1, the Potency is reported as inconclusive [inhibitor, single point]. For N/C(=N\OC(=O)C(c1ccccc1)c1ccccc1)c1cccnc1, the Potency was inconclusive [inhibitor, single point]. With CCOC(CCNC(=O)c1cn(CC(C)C)c(=O)c2c1c1ccccc1n2C)OCC the Potency was “inactive”. With Cc1ccc(NC(=O)CNC2CCCCC2)cc1Cl the Potency was inconclusive [inhibitor, single point]. For Cc1ccc(C(=O)OCC(=O)Nc2ccccc2C(F)(F)F)cc1S(=O)(=O)N1CCCCC1, the Potency was inconclusive [inhibitor, single point]. With CCCc1nnc(NC(=O)c2c(O)c3cccc4c3n(c2=O)CC4)s1 the Potency was inconclusive [inhibitor, single point]. For O=C(COc1ccccc1)N1CCN(c2nnc(-c3ccccc3)c3ccccc23)CC1, the Potency was active: 13 µM. For CCN(CC(=O)Nc1ccc(OC)cc1)C(=O)c1ccc2ccccc2c1, the Potency was inconclusive [inhibitor, single point]. In the case of COc1ccccc1-c1nc(SCC(=O)NCc2ccc(C)cc2)c2c(=O)n(C)c(=O)n(C)c2n1, the Potency is reported as “inactive”. With CCN1C=C(C(=O)c2ccccc2)C(=O)CC1 the Potency was “inactive”. In the case of COc1ccc(NS(=O)(=O)c2cc(C(=O)NNC(=O)c3ccncc3)ccc2OC)c(OC)c1, the Potency is reported as “inactive”. With CC(C)(C)Cc1c(C2CCCCC2)nc2ccc(Cl)cn12 the Potency was “inactive”. In the case of CC(=O)c1cccc(NC(=S)NC(=O)c2cncc(Br)c2)c1, the Potency is reported as active: 13 µM. For CC(C)(C)OC(=O)NCc1ccc(CNC(=O)c2nc[nH]c2C(=O)N2CCN(c3ccccc3)CC2)cc1, the Potency was inconclusive [inhibitor, single point]. With Cc1cccc(CSC2=NCCN2C(=O)c2ccc(Br)o2)c1 the Potency was “inactive”. For CCn1c(Cc2cccs2)nnc1SCC(=O)c1ccc(C)cc1, the Potency was active: 11.2 µM. For COCCN(C(=O)c1cc2c(s1)CCCCC2)c1c(N)n(Cc2ccccc2)c(=O)[nH]c1=O, the Potency was “inactive”. In the case of Cc1cccc(CN2C(=O)N(c3ccc(C(C)C)cc3)S(=O)(=O)c3ccccc32)c1, the Potency is reported as inconclusive [inhibitor, single point]. With O=c1c(-c2nc3ccccc3s2)cccn1Cc1ccc(Cl)cc1 the Potency was “inactive”. For Cc1cccc(C)c1NC(=O)C1(C)CN(S(C)(=O)=O)CC(=O)N1Cc1ccco1 (stereo not drawn), the Potency was inconclusive [inhibitor, full curve, poor fit]. With Cc1ccc(S(=O)(=O)N2CCN(C(=O)CN3C(=O)NC(C)(c4ccc5ccccc5c4)C3=O)CC2)cc1 (stereo not drawn) the Potency was inconclusive [inhibitor, partial curve]. In the case of COc1cccc(/C=C/c2nc(C#N)c(NCCc3ccccc3)o2)c1, the activity change, negative = growth inhibition is reported as inconclusive: -30.6% [inhibitor]. For O=C(NCc1nc2ccccc2[nH]1)C1=C[C@H](c2ccccc2)C[C@H](OCc2ccc(CO)cc2)O1, the Potency was inconclusive [inhibitor, single point]. With OC(c1ccccc1)c1ncc(-c2cccc(C(F)(F)F)c2)[nH]1 (stereo not drawn) the Potency was inconclusive [inhibitor, single point]. With Cc1cccc(C)c1NC(=O)C(c1ccc(C#N)cc1)n1c(=O)c(-c2cc3ccccc3[nH]2)nc2ccccc21 (stereo not drawn) the Potency was active: 11.6 µM. In the case of Cc1ccccc1-c1nnc(SCCC(=O)N2CCOCC2)o1, the Potency is reported as “inactive”. In the case of O=C(CSc1nnc2c(n1)[nH]c1ccccc12)Nc1ccc2c(c1)OCO2, the Potency is reported as “inactive”. With CCNC(=S)Nc1cccc(S(=O)(=O)NC2=NCCC2)c1 the Potency was “inactive”.
